Data: article PMC6451091
This is one part of the list. For some assays here: At the low end of the ranking the order means little. For some assays here: The protein was read in a cell extract, so binding may be indirect.

Biological target: PU.1 (IVT) (UniProt P17947)
Test: protein-binding microarray (PBM)
Conditions: 20 mM HEPES pH 7.9, 100 mM NaCl, 1 mM DTT, 0.2 mg/mL BSA, 0.02% Triton X-100, 2% milk, 0.4 mg/mL salmon testes DNA; 1 h; temperature not stated; high values mean tight binding; double strand, one strand shown; sequences stand for … in GCCTAGCAC…GTGCTAGGTCTTGATTCGCTTGACGCTGCTG

Row | Sequence | binding signal [z-score]
1 | CAAAAAGGGAAGTGGGTTGA | 7.02
2 | AAAAAAAGGAAGTCCTTGTG | 6.48
3 | ATAAAGAGGAAGTGAAATTA | 8.11
4 | GATGAGAGGAAGTCCTCTGT | 3.77
5 | GAAAAGAGGAAGTCCGGTGA | 8.09
6 | GAAAAGGGGAAGTGAGGGAT | 7.81
7 | AAAAAGAAGAAGTGGGGATA | 3.94
8 | AGTATGAGGAAGTGAGACCT | 5.63
9 | CAAAACAGGAAGTGGCTCTT | 7.77
10 | TAGTAGAGGAAGTACTGTGA | 4.25
11 | ACAAAAAGGAACTGTGCCTC | 1.97
12 | TCTGAGAGGAAGTGAGATAG | 4.07
13 | CGCAAGGGGAACTACTGTGC | 3.07
14 | GAAATCAGGAAGTGAAGATG | 5.85
15 | GAAATGAGGAAGTGCTAGTG | 8.07
16 | CCAAGAGGGAAGTGGGGGAG | 3.01
17 | GGAGGAAGGAAGTGAGCAGA | 2.05
18 | GAGAAAAGGAAGTGGCTCTT | 3.67
19 | TGGTTGGGGAAGTGGCCACT | 2.83
20 | AAAGAAGGGAAGTGACTTGC | 3.86

Row | Sequence | binding signal [z-score]
21 | GATAAGAGGAAGTCCTATGT | 5.89
22 | GCAAAGGGGAAATGAGTTTT | 3.59
23 | GGAAAGAGGAAGTGACATGG | 8.2
24 | ACAGGAGGGAAGTGTGAAAT | 2.15
25 | CGAAAGGGGAAGTGCTACAC | 7.07
26 | CACAAGAGGAAGTCCCACAA | 3.93
27 | GCCAAGAGGAAGTCTACAAA | 3.73
28 | TTCATGAGGAAGTGCTAGCC | 4.77
29 | AAAAAGAAGAAGTGAGCCGA | 4.3
30 | AAATAGGGGAAGTGTGTACA | 6.09
31 | TTAAACAGGAAGTAGTAACC | 6.11
32 | CCGAGGAGGAAGTGGCTTAG | 4.39
33 | TAGAAGAGGAAGTCAGGAGT | 5.21
34 | TGAAAGAGGAAGTGCCACCA | 7.48
35 | GGAAAGAGGAAGAGAGAGTG | 4.35
36 | ACAATAAGGAACTGTGCCCC | 2.81
37 | GGAAAGAGGAAGTGGCAGGA | 7.44
38 | CTGCCAGGGAAGTACTGTGA | 1.1
39 | TGTGGGAGGAAGTGCAAAAA | 3.55
40 | GAAATGGGGAAGTGGCCAGA | 6.85

Biological target: PU.1 (endogenous, THP-1 nuclear extract) (UniProt P17947)
Test: nuclear extract protein-binding microarray (nextPBM)
Conditions: 20 mM HEPES pH 7.9, 100 mM NaCl, 1 mM DTT, 0.2 mg/mL BSA, 0.02% Triton X-100, 2% milk, 0.4 mg/mL salmon testes DNA; 1 h; temperature not stated; high values mean tight binding; double strand, one strand shown; sequences stand for … in GCCTAGCAC…GTGCTAGGTCTTGATTCGCTTGACGCTGCTG

Row | Sequence | binding signal [z-score]
41 | CAAAAAGGGAAGTGGGTTGA | 6.78
42 | AAAAAAAGGAAGTCCTTGTG | 6.43
43 | ATAAAGAGGAAGTGAAATTA | 7.52
44 | GATGAGAGGAAGTCCTCTGT | 3.25
45 | GAAAAGAGGAAGTCCGGTGA | 7.21
46 | GAAAAGGGGAAGTGAGGGAT | 7.2
47 | AAAAAGAAGAAGTGGGGATA | 4.22
48 | AGTATGAGGAAGTGAGACCT | 6.41
49 | CAAAACAGGAAGTGGCTCTT | 7.41
50 | TAGTAGAGGAAGTACTGTGA | 4.15
51 | ACAAAAAGGAACTGTGCCTC | 1.7
52 | TCTGAGAGGAAGTGAGATAG | 3.95
53 | CGCAAGGGGAACTACTGTGC | 2.77
54 | GAAATCAGGAAGTGAAGATG | 6.48
55 | GAAATGAGGAAGTGCTAGTG | 7.31
56 | CCAAGAGGGAAGTGGGGGAG | 3.39
57 | GGAGGAAGGAAGTGAGCAGA | 2.19
58 | GAGAAAAGGAAGTGGCTCTT | 3.6
59 | TGGTTGGGGAAGTGGCCACT | 3.17
60 | AAAGAAGGGAAGTGACTTGC | 3.66

Row | Sequence | binding signal [z-score]
61 | GATAAGAGGAAGTCCTATGT | 6.4
62 | GCAAAGGGGAAATGAGTTTT | 3.06
63 | GGAAAGAGGAAGTGACATGG | 7.33
64 | ACAGGAGGGAAGTGTGAAAT | 1.99
65 | CGAAAGGGGAAGTGCTACAC | 7.13
66 | CACAAGAGGAAGTCCCACAA | 5.06
67 | GCCAAGAGGAAGTCTACAAA | 3.49
68 | TTCATGAGGAAGTGCTAGCC | 5.18
69 | AAAAAGAAGAAGTGAGCCGA | 4.67
70 | AAATAGGGGAAGTGTGTACA | 6.44
71 | TTAAACAGGAAGTAGTAACC | 6.59
72 | CCGAGGAGGAAGTGGCTTAG | 4.84
73 | TAGAAGAGGAAGTCAGGAGT | 6.08
74 | TGAAAGAGGAAGTGCCACCA | 7.08
75 | GGAAAGAGGAAGAGAGAGTG | 5.05
76 | ACAATAAGGAACTGTGCCCC | 2.43
77 | GGAAAGAGGAAGTGGCAGGA | 7.12
78 | CTGCCAGGGAAGTACTGTGA | 1.28
79 | TGTGGGAGGAAGTGCAAAAA | 3.14
80 | GAAATGGGGAAGTGGCCAGA | 7.01
